According to PubChem BioAssay AID1508624 (National Center for Advancing Translational Sciences (NCATS), 2021):
Hit rate of the full screen: of about 48,000 compounds, about 120 (0.25%) were called active. Another 4% or so got no clear call; they are omitted. The call rests on the fitted dose curve; in most records, active means well fitted activation curve with a large enough effect; inconclusive means small, poorly fitted or top-dose-only effect, or another doubt; inactive means no such curve, though single readings can be large or run the other way. Some of the results follow.

Assay: Primary qHTS for Identification of Small Molecule Activators of Huntingtin-Antisense Promoter Activity; further: nearly all actives have a fitted effect of over 55% in size
Conditions: HEK293 HTT-AS promoter firefly luciferase reporter, 24 h; series mostly up to 57.5 µM; activity change, positive = activation: at the top concentration
How it was run: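 HEK293 Fluc reporter, 2,500 cells/well, 24 h pre-culture; cpds up to 57.5 uM final, 24 h 37 degrees C; Dual-Glo, 10 min RT; normalized vehicle = 0%, zero RLU = -100%.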

Activity change, positive = activation, inactive:
CC(C)(C)C(=O)NCCc1nc2ccccc2n1CCCCOc1ccc(Cl)cc1 -26.2%
COc1ccc(-n2nc3c(N4CCCC(C(=O)NCc5cccc(F)c5)C4)nnc(C)c3c2C)cc1 (stereo unspecified) -23.4%
O=C(NN1CCCC1)NS(=O)(=O)c1ccc(Cl)cc1 -3.49%
CCOc1ccc(CNC(=O)CSc2nnc(C)c3c(C)n(-c4ccccc4)nc23)cc1 -21.9%
Cc1ccccc1CCNC(=O)c1ccc2c(c1)c(C)c(C)n2Cc1ccccc1 -23.6%
CC(C)CN(CCCNC(=O)CN1C(=O)CSc2ccc(S(=O)(=O)N3CCOCC3)cc21)CC(C)C -2.97%
CN1CCN(C2=Nc3ccccc3Oc3ccc(Cl)cc32)CC1 -18%
CCc1ccccc1N1C(=O)N(Cc2ccccc2C)c2ccccc2S1(=O)=O -38.1%
COc1ccc(S(=O)(=O)n2ccnc2)cc1C(C)(C)C -0.954%
COc1ccc(OC)c2sc(N3CCN(C(=O)C4CC4)CC3)nc12 -6.18%
CCOc1ccc(NC(=O)CC2C(=O)OCCN2CC)cc1 (stereo unspecified) 11.4%
COc1ccccc1NC(=O)c1cnc(SCC(=O)N2CCCc3ccccc32)n(C)c1=O -0.547%
CC1=C(C(=O)N2CCN(c3cccc(C(F)(F)F)c3)CC2)C2(CCCCC2)OC1=O -22.1%
CCOC(=O)c1ccccc1NC(=O)c1cc2c(=O)oc3ccc(C)cc3c2s1 -11%
COc1ccccc1CNC(=O)CN1C(=O)CSc2ccc(S(=O)(=O)N3CCCCC3)cc21 -26.2%
COC(=O)c1c(Oc2ccc(C(C)=O)cc2)nnc(-c2ccccc2)c1-c1ccccc1 -27.9%
CCN(c1ccccc1)c1ncnc2c1cnn2-c1ccc(C)cc1C 17.3%
Cc1ccc(NC(=O)Cn2cc3c(n2)CCCCC3)cc1 -11.4%
Cc1ccc(S(=O)(=O)Nc2cccc(-c3cn4cccc(C)c4n3)c2)cc1 -20.2%
O=C(Nc1ccc(Cl)cc1Cl)c1cc(S(=O)(=O)N2CCc3ccccc32)ccc1F -11%
Cc1ccc(C)c(Nc2nc3c(S(=O)(=O)c4ccc(C(C)C)cc4)nnn3c3ccsc23)c1 -44.7%
Cc1cccc(N2CCN(C(=O)c3c(C)oc4ncnc(N5CCCCC5)c34)CC2)c1C -24.4%
CCOC(=O)c1noc2nc(C)n(CC(=O)Nc3ccccc3F)c(=O)c12 6.18%
Fc1cc(Br)ccc1Nc1c2c(nc3nc(-c4cccs4)nn13)CCCC2 -26.4%
CNC(=O)c1cc(Nc2nnc(-c3ccc(O)cc3)c3ccccc23)ccc1OC -22.3%
O=C1CCCc2cc(S(=O)(=O)NCC3CCC(C(=O)Nc4ccccc4F)CC3)ccc2N1 (stereo unspecified) -25.8%
CC(NC(=O)c1ccccc1NC(=O)c1nsc2ccccc12)c1ccccc1 (stereo unspecified) 11.3%
COc1ccc(OC)c(CCNc2ncnc3onc(-c4ccc(F)cc4)c23)c1 -40.9%
COC(=O)c1ccc(OC)c(Cn2c(=O)n(Cc3ccccc3)c(=O)c3c2c2cc(OC)ccc2n3C)c1 -4.56%
CC(=O)c1ccc(NC(=O)C2=CC(c3ccc4c(c3)OCO4)=NS(=O)(=O)N2C)cc1 -27.4%
CCCCOc1ccc(C(=O)N2CCN(CCc3ccccn3)CC2)cc1 -16.2%
COc1ccc(-c2cc(C)nc3c(-c4ccc(OC)c(OC)c4)c(C)nn23)cc1 -7.02%
COc1ccc(N2CCN(C(=O)c3cc4ccc5cccnc5c4[nH]3)CC2)cc1 -0.912%
CSc1ccc(-c2nc3ccc(C)cn3c2Nc2ccccc2C)cc1 0.731%
CS(=O)(=O)N(CC(=O)NCCc1ccccc1)c1cc(C(F)(F)F)ccc1Cl -13.1%
Cc1cccc(-c2nnn3c2nc(NCCc2ccc(S(N)(=O)=O)cc2)c2cc(Cl)ccc23)c1 -5.65%
CCCCCn1c(=O)[nH]c2cc(C(=O)N3CCN(c4cccc(C)c4)C(C)C3)ccc2c1=O (stereo unspecified) -56.6%
Cc1cccc(Oc2nc3c(c(=O)n(C)c(=O)n3C)n2C)c1 -5.36%
O=C(NCC12CC3CC(CC(C3)C1)C2)c1cc2nc(-c3ccccc3)cc(C(F)(F)F)n2n1 -8.32%
CCn1cc(C(=O)NCc2ccccc2OC)c(=O)c2cc(S(=O)(=O)N3CCCCC3)ccc21 -13.8%
CCOC(=O)[C@@H](N)Cc1ccc(-c2cc(O[C@H](c3ccc(Cl)cc3-n3ccc(C)n3)C(F)(F)F)nc(N)n2)cc1 -18.6%
COc1ccccc1CN1COc2ccc3c(oc(=O)c4ccccc43)c2C1 -11.4%
CCn1c(=O)cc(SCC(=O)NCCc2ccc(Cl)cc2)c2ccccc21 -16.6%
CCOC(=O)C1CCC(CN(Cc2ccc(Cl)cc2)S(=O)(=O)c2ccc(F)c(C(=O)Nc3cccc(F)c3)c2)CC1 (stereo unspecified) -6.58%
COc1ccccc1Nc1cc(C(=O)NC2CCCC2)c2ccccc2n1 -25.5%
COc1ccc(/C=C/C(=O)Nc2sc3c(c2C(N)=O)CCCC3)cc1 2.6%
COc1ccc(S(=O)(=O)N2CCCCC2)cc1C(=O)Nc1cccc(C(F)(F)F)c1 -13.4%
CCOC(=O)c1cnc(NCc2ccccc2OC)c2ccccc12 -12.4%
COc1cccc2sc(=NC(=O)c3ccc(S(=O)(=O)N4CCCCC4)cc3)n(C)c12 -6.06%
COc1ccc(-c2ccc(=O)n(CC(=O)Nc3ccc(C)cc3C)n2)cc1 -8.61%
COc1ccc(-c2noc(CCC(=O)NCc3ccc(C)cc3)n2)cc1 11.1%
Cc1ccc(-c2ccc(CCC(=O)O)n2-c2cccc(O)c2)cc1 2.15%
O=c1n(Cc2cccc(C(F)(F)F)c2)c2ccccc2c2nc(-c3ccccc3)nn12 -25.1%
Cc1ccc(CNC(=O)CCCCCn2c(=O)c3sccc3n(CC(=O)N(C)c3ccccc3)c2=O)cc1 0.644%
CCOC(=O)c1cccc(NC(=O)Cn2ncc3c4ccccc4n(Cc4ccccc4)c3c2=O)c1 -14%
Cc1ccc(C(=O)Nc2ccc3oc(-c4ccc(C(C)(C)C)cc4)nc3c2)cc1 -14.8%
CCc1ccc2oc(C(=O)Nc3cccc(C(F)(F)F)c3)cc(=O)c2c1 10.8% [at 11.5 µM, percent change from vehicle, -100% = no light]
CSc1nn(Cc2ccc(Cl)cc2)c(N(C(C)=O)C(C)=O)c1S(=O)(=O)c1ccccc1 -35.6%
Cc1ccc(NS(=O)(=O)c2ccc3[nH]c(=O)ccc3c2)cc1N(C)C -26.8%
Cc1cccc(Cn2c(=O)n(CCc3ccccc3)c(=O)c3c(C)c(C)sc32)c1 11.9%
Cc1ccc(NC(=O)c2cc(C)nc3c2c(C)nn3-c2cccc(Cl)c2C)c(C)c1 -13.9%
C#CCOc1ccc(-c2nnc(Nc3cccc(C)c3)c3ccccc23)cc1 -44.4%
Cn1cc(S(=O)(=O)c2ccccc2)c(=O)c2cc(F)c(N3CCN(c4ccccc4)CC3)cc21 -18.5%
Cc1cccc(-n2c(-c3ccccc3)cn3c4c(=O)[nH]c(=O)n(C)c4nc23)c1 -0.452%
Cc1ccc(-c2cc(C(F)(F)F)n3nc(C(=O)Nc4ccc(Cl)c(C(F)(F)F)c4)cc3n2)cc1 2.86%
Cc1cccc(C)c1OCC(=O)Nc1nc(-c2ccc(Br)cc2)ns1 -0.178%
Cc1cc(C)c(Cn2c3ccccc3c3cnn(CC(=O)N4CCCCCC4)c(=O)c32)c(C)c1 -14.4%
O=C(Cn1c(=O)n(-c2cccc(Cl)c2)c(=O)c2sc3ccccc3c21)N1CCCC1 -17.1%
CCOc1ccc(C(=O)Nc2c(C(=O)Nc3ccccc3F)oc3ccccc23)cc1OCC -15.1%
CC(=O)c1ccc(NC(=O)c2c3c(nc4ccccc24)C(=O)N(C2CCCCC2)C3)cc1 -6.6%
O=S1(=O)c2ccccc2N(Cc2ccccc2)c2ccccc21 -8.61%
CCN(CC)CCCNC(=O)C1CCN(S(=O)(=O)CC)CC1 -2.51%
COC(=O)c1cc(C)nc2c1c(=O)nc(SCc1ccccc1F)n2C1CC1 -6.09%
CCn1c(=O)c2cc(C(=O)NCCc3cc(OC)ccc3OC)sc2c2ccccc21 -12.2%
CCCCN(CC)CCNC(=O)c1cc2c(=O)oc3ccc(C)cc3c2s1 -17%
Cc1ccc(-n2c(C)nc3c(cnn3-c3ccccc3C)c2=O)cc1F -9.72%
Cc1cccc(Cn2cc(C(=O)Nc3ccc(F)c(C(F)(F)F)c3)ccc2=O)c1 -27.4%
O=C(NCc1cccc(F)c1)c1ccc(-n2cnc3cccnc32)cc1 -9.16%
O=C(NCCc1csc(-c2ccc(Cl)cc2)n1)c1cccs1 -32.1%
CCc1ccccc1NC(=O)Cn1c(-c2nonc2N)nc2ccccc21 -5.82%
COC(=O)c1c(NC(=O)CCCOc2ccc(C(C)(C)C)cc2)sc2c1CCC(C)C2 (stereo unspecified) -1.36%
CC1CCN(C(=O)CSc2nnc(-c3ccccc3Cl)o2)CC1 5.96%
COc1ccc(NC(=O)/C(C#N)=C/c2ccc(OCc3cc(=O)n4nc(C)sc4n3)cc2)cc1 -9.24%
CCN(C(=O)Cn1nc(Cc2cccnc2)c2ccccc2c1=O)c1ccccc1F -18.8%
O=S(=O)(Nc1ccc2oc3c(c2c1)CCCC3)c1cc(Cl)ccc1Cl -8%
OCCN1C[C@H](O)[C@@H](O)[C@H](O)[C@@H]1CO -5.31%
Cc1cccc(NC(=O)C2CCN(c3nnc(-n4c(C)ccc4C)s3)CC2)c1C 1.48%
COc1ccc(-c2nnc(C3CCN(C(=O)c4ccccc4F)CC3)o2)cc1 -88.3%
Cc1ccc(S(=O)(=O)NCCc2cn3c(C)csc3n2)cc1 -5.82%
COc1ccc(NC(=O)CCNS(=O)(=O)c2cccc3nsnc23)cc1 0%
COc1ccc(C2Sc3ccccc3NC3=C2C(=O)c2ccccc23)c(OC)c1OC (stereo unspecified) -33.8%
Cc1ccc2nc(-c3cc(NC(=O)c4ccc5c(c4)OCCO5)ccc3Cl)oc2c1 27%
COc1ccc(-c2onc(C)c2C)cc1S(=O)(=O)N1c2ccccc2CC1C (stereo unspecified) -40.9%
Cc1ccc(S(=O)(=O)Cc2nc(-c3ccc(C(=O)NCc4ccccc4)cc3)oc2C)cc1 -37.6%
Cc1ccc(NC(=O)CSc2nc3ncccc3[nH]2)cc1F 16.4%
O=C(Nc1cccc(Br)c1)N1CCC(CN2CCCCC2)CC1 -7.8%
